# Test results from PubChem BioAssay AID485367 (National Center for Advancing Translational Sciences (NCATS), 2010).
# Screen size: about 330,000 compounds; about 560 (0.17%) were called active. The shares of active, inactive and inconclusive entries below differ from those in the screen. The call rests on the fitted dose curve; in most records, active means well fitted inhibition curve with a large enough effect; inconclusive means small, poorly fitted or top-dose-only effect, or effect the other way; inactive means flat fitted curve, though single readings scatter. Potencies of inconclusive entries are left out as doubtful fits.
# Target: ATP-dependent 6-phosphofructokinase (Trypanosoma brucei brucei) (UniProt O15648)
# Experiment: qHTS Assay to Find Inhibitors of T. brucei phosphofructokinase; further: nearly all actives have a fitted effect of over 60% in size
# Details: T. brucei PFK, ADP-Glo luminescence; series mostly up to 57.5 µM
# Method in brief: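 ADP-Glo luminescence quantified ADP after 45 min at room temperature, with 1.25 nM T. brucei PFK, 0.1 mM ATP and 0.5 mM fructose-6-phosphate in pH 8.0 TEA buffer. qHTS titrations up to 57 µM; curves classified by quality.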
# Potency means the concentration at half of the fitted maximal effect; tags describe the fitted curve by direction and shape.
# UniProt O15648, sequence (O15648 whole entry, looked up): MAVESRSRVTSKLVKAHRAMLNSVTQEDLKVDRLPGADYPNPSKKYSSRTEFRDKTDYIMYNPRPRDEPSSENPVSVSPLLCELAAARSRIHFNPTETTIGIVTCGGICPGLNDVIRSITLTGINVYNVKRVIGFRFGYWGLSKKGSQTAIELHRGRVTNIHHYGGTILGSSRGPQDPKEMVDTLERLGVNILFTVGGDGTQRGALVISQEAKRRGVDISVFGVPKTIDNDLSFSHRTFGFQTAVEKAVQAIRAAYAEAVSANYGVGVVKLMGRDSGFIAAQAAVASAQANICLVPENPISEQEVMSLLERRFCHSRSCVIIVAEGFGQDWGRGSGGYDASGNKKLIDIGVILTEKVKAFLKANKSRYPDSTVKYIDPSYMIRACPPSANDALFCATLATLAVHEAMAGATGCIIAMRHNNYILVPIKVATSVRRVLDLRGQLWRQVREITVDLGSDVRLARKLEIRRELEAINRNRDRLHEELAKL
row,Compound,Potency
1,CC(=O)c1ccc(S(=O)(=O)N2CCN(CC(=O)Nc3ccc(Cl)c([N+](=O)[O-])c3)CC2)cc1,active: 13.5 µM
2,O=S(=O)(O)c1cccc2c(N=Nc3ccc(O)c4ncccc34)cccc12,"inconclusive [activator, single point]"
3,Cc1c(C(=O)OCC2CCCO2)[nH]c2c1C(=O)CC(c1ccco1)C2 (stereo not drawn),"inconclusive [falling, partial curve]"
4,COC(=O)c1c(-c2ccc(OC)c(OC)c2)csc1N,"inconclusive [activator, partial curve, poor fit]"
5,Cc1sc2nc(-c3ccccc3)[nH]c(=O)c2c1-c1ccccc1,"inconclusive [activator, single point]"
6,CCOC(=O)c1sc(N2C(=O)C(O)=C(C(=O)c3ccc(C)o3)C2c2ccc(OC)c(OC)c2)nc1C (stereo not drawn),inactive
7,Cc1n[nH]c(=S)n(NC(=O)/C=C/C(=O)Nn2c(=S)[nH]nc(C)c2=O)c1=O,inactive
8,C/C(=N\OCc1nc2ccccc2c(=O)n1/N=C/c1cc([N+](=O)[O-])ccc1O)c1ccccc1,inactive
9,C=CCNc1nc(C(=O)OCC(=O)Nc2ccc(S(N)(=O)=O)cc2)cs1,inactive
10,COc1ccccc1-c1coc2c(CN3C(C)CCCC3C)c(O)ccc2c1=O (stereo not drawn),inactive
11,O=C(N/N=C/c1ccc(OC(=O)c2ccccc2)cc1)c1cccnc1,"inconclusive [falling, single point]"
12,Cc1c(N2C(=O)/C(=C/c3ccccc3)SC2=S)c(=O)n(-c2ccccc2)n1C,inactive
13,O=C(Nc1ccc2ccccc2c1)c1ccccc1O,"inconclusive [activator, partial curve]"
14,COc1ccc(CNC(=O)CSc2ccsc2[N+](=O)[O-])cc1,inactive
15,CCCOc1ccc(CSc2ncn[nH]2)cc1,inactive
16,CCSc1nc2cc(S(=O)(=O)N3CCOCC3)ccc2o1,"inconclusive [falling, single point]"
17,O=C(Cn1nc2ccccc2n1)N/N=C/c1cc([N+](=O)[O-])ccc1O,"inconclusive [activator, single point]"
18,NC(=O)c1ccsc1NC(=O)CSc1nnc(Nc2ccccc2)s1,inactive
19,Cc1ccc(OCc2nc(-c3ccccn3)no2)cc1,inactive
20,COc1ccc2cc3[n+](cc2c1OC)CCc1cc2c(cc1-3)OCO2,inactive
21,COc1ccccc1NS(=O)(=O)c1cccc(-n2c(O)c(C=Nc3ccccc3C(=O)O)c3ccccc3c2=O)c1,"inconclusive [activator, partial curve]"
22,CCC(=O)Nc1nc(CC(=O)Nc2ccccc2)cs1,"inconclusive [activator, single point]"
23,C[C@@H]1CN(C(=O)c2nc3ccc(Cl)cn3c2CN2CCc3sccc3C2)C[C@H](C)O1,"inconclusive [activator, partial curve, poor fit]"
24,CCn1c(=N)n(CC(=O)c2ccc(Cl)c(Cl)c2)c2ccccc21,inactive

row,Compound,Potency
1,CCOC(=O)CSc1ccc2nnc(-c3cccs3)n2n1,inactive
2,Cc1[nH][nH]c(=O)c1C(c1ccc(-c2cccc(Cl)c2)o1)c1c(C)[nH][nH]c1=O,inactive
3,Oc1ccc(Cl)cc1CNc1cnc2ccccc2c1,inactive
4,CCn1nc(C(=O)NNS(=O)(=O)c2cc(/C=C/C(=O)O)cc(OC)c2OC)c2ccccc2c1=O,"inconclusive [activator, partial curve]"
5,O=C(CCc1ccccc1)NNC(=O)c1ccc(NC(=O)c2ccccc2)cc1,"inconclusive [falling, partial curve]"
6,O=C(NCc1cccc(Cl)c1)c1ccc2nc(N3CCOCC3)sc2c1,"inconclusive [falling, single point]"
7,COCCCN(C(=O)c1ccccc1F)c1nc(-c2ccc(OC)cc2)cs1,"inconclusive [falling, single point]"
8,Oc1ccc(N2CCN(c3nc(-c4cccs4)nc4ccccc34)CC2)cc1,"inconclusive [falling, partial curve]"
9,Cc1ccnc(SCC(=O)c2ccc([N+](=O)[O-])cc2)n1,"inconclusive [falling, single point]"
10,Oc1ccc(CNc2ccccc2)c2cccnc12,inactive
11,Cc1cc(CSc2ccccc2)ccc1NC(=O)COc1ccccc1,"inconclusive [falling, partial curve]"
12,O=C(c1cc2ncc(Br)cn2n1)N1CCN(C(=O)c2ccco2)CC1,"inconclusive [falling, single point]"
13,COc1ccccc1/C=C/C=N/NC(=O)Cc1cccn1C,inactive
14,Nc1cccnc1Sc1cccc(Cl)c1,"inconclusive [falling, single point]"
15,COc1ccc(S(=O)(=O)N2CCN(C(=O)Cc3cccs3)CC2)cc1,inactive
16,CC(=O)c1ccc(N2CCN(C(=O)COc3ccc4c(c3)CCC4)CC2)cc1,"inconclusive [falling, single point]"
17,Cc1c(-c2ccccc2)oc2c(C(=O)N3CCN(c4ccccc4F)CC3)cccc2c1=O,"inconclusive [falling, single point]"
18,NS(=O)(=O)c1ccc(NC(=S)NCc2ccco2)cc1,"inconclusive [falling, partial curve]"
19,C=CCNC(=O)c1ccc(Cn2c(=S)[nH]c3cc4c(cc3c2=O)OCO4)cc1,"inconclusive [falling, single point]"
20,COc1ccc(C(=O)N/N=C/C(C)c2ccccc2)cc1OC (stereo not drawn),inactive
21,N#Cc1cc2c(nc1Cl)CCCC2,"inconclusive [falling, single point]"
22,COc1ccc(C)cc1NC(=O)C(OC(=O)c1ccc([N+](=O)[O-])o1)c1ccccc1 (stereo not drawn),inactive
23,CC(=O)N(C(C)=O)c1nc2nc(C)cc(C)n2n1,"inconclusive [falling, single point]"
24,CO/N=C\CC(=O)Nc1ccc(Cl)c(Cl)c1,inactive
